# Laboratory results from the supplement of paper PMC12217912.
# The list shows a part of the results. The full chains were built here from the parent and the listed change. Values near 0.05 are background.
# B1: TEV protease; numbered along this chain (parent)
# chain: MGESLFKGPRDYNPISSSICHLTNESDGHTTSLYGIGFGPFIITNKHLFRRNNGTLVVQSLHGVFKVKDTTTLQQHLVDGRDMIIIRMPKDFPPFPQKLKFREPQREERICLVTTNFQTKSMSSMVSDTSCTFPSGDGIFWKHWIQTKDGQCGSPLVSTRDGFIVGIHSASNFTNTNNYFTSVPKNFMELLTNQEAQQWVSGWRLNADSVLWGGHKVFMVKPEEPFQPVKEATQL
# Variants of: B1
# Experiment: raw area under fraction-flipped curve 0-4 h after induction (AUC4h, not background-subtracted), DNA-recorder readout of cleavage of the substrate (dimensionless); higher = more cleavage of the substrate by the protease variant
# Conditions: temperature: 34 °C; time window: 0-4 h after rhamnose induction
# Procedure: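 In vivo DNA recorder in E. coli TOP10(DE3) ΔrhaA at 34 °C. Each TEVp single-site mutant (parent TEVp 0) is paired with a single-site variant of the 7-mer TEVs (canonical ENLYFQ|S). The substrate sits between flexible linkers in a Bxb1-sfGFP-TEVs-SsrA fusion, so cleavage stabilises Bxb1 and speeds flipping of a recombination array, read by NGS. The value is the raw area under the fraction-flipped curve over 0-4 h after rhamnose induction (AUC4h), with ≥20 reads per time point. It is not background-subtracted; inactive controls average about 0.047.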
# 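Note: Bxb1 expression induced with 0.2% (w/v) L-rhamnose at OD600 near 0.5, cultures sampled hourly, flipped fraction per protease–substrate barcode pair counted by paired-end Illumina sequencing.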
variant,measurement,value
L77E,area with substrate ENLYAQS,0.0732
same,area with substrate ENLYCQS,0.0682
same,area with substrate ENLYDQS,0.0683
same,area with substrate ENLYGQS,0.0578
same,area with substrate ENLYHQS,0.0538
same,area with substrate ENLYKQS,0.058
same,area with substrate ENLYLQS,0.0564
same,area with substrate ENLYMQS,0.0621
same,area with substrate ENLYPQS,0.0563
same,area with substrate ENLYQQS,0.0648
same,area with substrate ENLYRQS,0.0385
same,area with substrate ENLYSQS,0.0707
same,area with substrate ENLYTQS,0.0601
same,area with substrate ENLYVQS,0.0586
same,area with substrate ENLYWQS,0.0576
same,area with substrate ENLYYQS,0.0562
Q59M,area with substrate ENLYAQS,0.0635
same,area with substrate ENLYCQS,0.0755
same,area with substrate ENLYDQS,0.057
same,area with substrate ENLYEQS,0.0632
same,area with substrate ENLYGQS,0.078
same,area with substrate ENLYHQS,0.061
same,area with substrate ENLYIQS,0.144
same,area with substrate ENLYKQS,0.0618
same,area with substrate ENLYMQS,0.0987
same,area with substrate ENLYNQS,0.0631
same,area with substrate ENLYPQS,0.069
same,area with substrate ENLYQQS,0.0564
same,area with substrate ENLYRQS,0.0621
same,area with substrate ENLYSQS,0.0765
same,area with substrate ENLYTQS,0.0874
same,area with substrate ENLYVQS,0.125
same,area with substrate ENLYWQS,0.092
I139W,area with substrate ENLYAQS,0.0572
same,area with substrate ENLYDQS,0.0539
same,area with substrate ENLYEQS,0.002
same,area with substrate ENLYGQS,0.0604
same,area with substrate ENLYHQS,0.0601
same,area with substrate ENLYIQS,0.0612
same,area with substrate ENLYKQS,0.0532
same,area with substrate ENLYMQS,0.0672
same,area with substrate ENLYNQS,0.0488
same,area with substrate ENLYPQS,0.0676
same,area with substrate ENLYSQS,0.0677
same,area with substrate ENLYTQS,0.0676
same,area with substrate ENLYYQS,0.0563
V210L,area with substrate ENLYAQS,0.0681
same,area with substrate ENLYCQS,0.0573
same,area with substrate ENLYDQS,0.0706
same,area with substrate ENLYEQS,0.0579
same,area with substrate ENLYGQS,0.0483
same,area with substrate ENLYHQS,0.0644
same,area with substrate ENLYIQS,0.104
same,area with substrate ENLYKQS,0.0692
same,area with substrate ENLYMQS,0.0848
same,area with substrate ENLYNQS,0.0615
same,area with substrate ENLYPQS,0.0726
same,area with substrate ENLYQQS,0.0394
same,area with substrate ENLYSQS,0.0671
same,area with substrate ENLYWQS,0.0795
same,area with substrate ENLYYQS,0.0718
I19M,area with substrate ENLYAQS,0.0841
same,area with substrate ENLYCQS,0.0817
same,area with substrate ENLYDQS,0.0664
same,area with substrate ENLYEQS,0.0669
same,area with substrate ENLYGQS,0.0723
same,area with substrate ENLYHQS,0.0593
same,area with substrate ENLYIQS,0.124
same,area with substrate ENLYKQS,0.0778
same,area with substrate ENLYMQS,0.0928
same,area with substrate ENLYNQS,0.0583
same,area with substrate ENLYPQS,0.078
same,area with substrate ENLYQQS,0.0422
same,area with substrate ENLYRQS,0.0602
same,area with substrate ENLYVQS,0.118
same,area with substrate ENLYWQS,0.0842
same,area with substrate ENLYYQS,0.0663
P155N,area with substrate ENLYAQS,0.063
same,area with substrate ENLYCQS,0.0598
same,area with substrate ENLYDQS,0.046
same,area with substrate ENLYEQS,0.0672
same,area with substrate ENLYGQS,0.0551
same,area with substrate ENLYHQS,0.058
same,area with substrate ENLYIQS,0.0568
same,area with substrate ENLYKQS,0.0446
same,area with substrate ENLYLQS,0.0097
same,area with substrate ENLYMQS,0.0604
same,area with substrate ENLYNQS,0.0529
same,area with substrate ENLYPQS,0.0507
same,area with substrate ENLYQQS,0.0432
same,area with substrate ENLYRQS,0.05
same,area with substrate ENLYTQS,0.0561
same,area with substrate ENLYVQS,0.0416
same,area with substrate ENLYWQS,0.0575
same,area with substrate ENLYYQS,0.0375
